This note sets out measurements from PubChem BioAssay (NCI).

This assay relates to NCI-H322M lung. In words: DTP human tumour cell line panel, 48 h.

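48-hour exposure; five concentrations; linearly interpolated endpoints. GI50 is the concentration that inhibits growth by half. The concentration for full growth arrest is given as TGI.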

Take `O=c1ccc(Cn2c(C(F)(F)F)cc3c(Cl)ncnc32)c[nH]1`: the GI50 (in general, the concentration at which growth is held to half of that of the control) is 14.1 µM and the total growth inhibition concentration (TGI) (commonly the concentration giving total growth inhibition) is 39.7 µM.
